Each molecule was assayed on hESC-differentiated astrocytes.

| Compound | Cytotoxicity to astrocytes (CTG) |
| --- | --- |
| CC(C)(C)c1ccc(C(=O)CCCN2CCC(OC(c3ccccc3)c3ccccc3)CC2)cc1 [Ebastine] | not to astrocytes |
| COc1cccc2c1C(=O)c1c(O)c3c(c(O)c1C2=O)C[C@@](O)(C(=O)CO)C[C@@H]3O[C@H]1C[C@H](N2CCO[C@H](OC)C2)[C@H](O)[C@H](C)O1 [Nemorubicin] | not to astrocytes |
| C/C=C(/C)C(=O)O[C@H]1C(C)=C2[C@H]([C@@H]1OC(=O)CCCCCCC)[C@@](C)(OC(C)=O)C[C@H](OC(=O)CCC)[C@@]1(O)[C@H]2OC(=O)[C@@]1(C)O [Thapsigargin] | not to astrocytes |
